Test results reported in paper PMC10668032.
Some of the results follow. At the low end of the ranking, values are background and their order means little.

The sequences below were run against SIX1-Q177R homeodomain (UniProt Q15475) (assay: universal protein binding microarray). Conditions: Universal all-10-mer PBM (8x60K, AMADID 030236), 300 nM GST-tagged protein, Alexa Fluor 488 anti-GST; buffer, salt, pH and temperature not stated; high values mean tight binding; most listed sequences are background and not binding sites; double strand, one strand shown.

Row | Sequence | binding signal [E-score]
1 | CAATTCGC | -0.00761
2 | AGCTCTAA | -0.0461
3 | ATAGCTCC | -0.232
4 | CCCGTAAA | -0.0585
5 | CGAGTCGA | 0.151
6 | GCATCAAC | -0.14
7 | CTATGCTC | 0.0665
8 | ACGATGGG | 0.151
9 | TATCACGA | 0.0808
10 | ATCGCAAA | -0.149
11 | GCAGACGC | -0.0935
12 | AGCAATTC | -0.202
13 | GGTAATAC | 0.108
14 | AGCCGAAC | -0.136
15 | AGCTATTG | -0.11
16 | ACGGTTGC | -0.134
17 | ACGTCGAG | 0.0549
18 | AACATTGC | -0.25
19 | AGATGATA | -0.0114
20 | CATGCCAG | -0.19
21 | CTTATTGC | -0.216
22 | CACAAAAC | 0.0539
23 | ATGAGGAA | -0.143
24 | CAATCGGG | -0.0102

Row | Sequence | binding signal [E-score]
25 | ACATTGCG | -0.121
26 | AGTCCGAT | -0.109
27 | CTAACCAA | 0.0416
28 | AGAAAGCC | -0.304
29 | ACTAGACG | 0.0673
30 | AGTTCGGG | -0.179
31 | AGAGCTCT | -0.16
32 | ATATCAAC | -0.0233
33 | CGTGGCGC | -0.273
34 | GCGAATCC | 0.0153
35 | CCGTCAGC | -0.173
36 | AATAGCCC | -0.0756
37 | GGAAGACA | 0.155
38 | AAGATACT | -0.0816
39 | TATGCATA | 0.0285
40 | AGGGTCCC | -0.149
41 | CCGCTAGA | -0.0311
42 | AGTCGTGA | 0.00548
43 | GGCCCTGA | -0.141
44 | ATGCTGGG | 0.0701
45 | CGGATTGA | 0.0653
46 | AGTATCCC | 0.139
47 | CGTGTTTC | 0.339
48 | CCGCTCTC | -0.251

Row | Sequence | binding signal [E-score]
49 | GAGCCAAA | -0.233
50 | CCTCCAAC | 0.0637
51 | AATCCAGG | -0.0225
52 | CTCCTCTA | 0.0908
53 | CGGCTTCC | 0.144
54 | AAAGGCCG | -0.12
55 | ATACACAC | 0.315
56 | ATGTTATC | -0.0443
57 | AGGTCGGG | -0.000815
58 | CGAGTCAG | -0.0723
59 | ATGGTTCC | -0.0242
60 | AGCCTTAT | -0.134
61 | AACTGAAC | -0.174
62 | TGATCAAA | -0.00451
63 | AGAGCCGA | -0.268
64 | GCATATTA | -0.0109
65 | CCTCCACA | -0.0147
66 | ACCCCGGC | 0.262
67 | GATTAAGC | -0.21
68 | ACATCCGG | -0.00423
69 | CTCATAAC | 0.0542
70 | AGGGTAGG | 0.176
71 | AGCATCTA | -0.176
72 | CGGAGTCA | 0.356

Row | Sequence | binding signal [E-score]
73 | GCAACTCC | 0.0875
74 | AACACTAG | 0.357
75 | ACCGTACG | -0.0127
76 | CGCCAGAC | -0.227
77 | ACGGTTTG | 0.118
78 | ATGCCGAG | -0.126
79 | ATTTACCG | -0.0397
80 | AAAAACAG | -0.223
81 | TACGAATA | -0.0556
82 | TGGCCAAA | -0.0967
83 | ACAAAGCT | -0.034
84 | CGATTGAC | -0.154
85 | ATCTACAG | -0.133
86 | AAAACGGA | -0.157
87 | GTGCGAGA | -0.0792
88 | CAAAGGCG | 0.114
89 | CGAACCAA | -0.0999
90 | ACAGCGTA | -0.0867
91 | AGAGCTTA | -0.186
92 | GCTGTCAC | 0.0253
93 | CCAGTGGA | -0.202
94 | GATACTAA | 0.129
